# From paper PMC10668032
# The list shows a part of the results. At the low end of the ranking the order means little.
# Target: SIX1-Q177R homeodomain (UniProt Q15475)
# Test: universal protein binding microarray
# Conditions: Universal all-10-mer PBM (8x60K, AMADID 030236), 300 nM GST-tagged protein, Alexa Fluor 488 anti-GST; buffer, salt, pH and temperature not stated; high values mean tight binding; most listed sequences are background and not binding sites; double strand, one strand shown
row,Sequence,binding signal
1,CAGAGAGA,-0.0384 E-score
2,AAATGTCA,0.0139 E-score
3,TCGGTTAA,0.0271 E-score
4,CTGGTAAA,-0.254 E-score
5,GTTTGTTA,-0.0518 E-score
6,CTTTTTGA,-0.235 E-score
7,GATGACCC,0.211 E-score
8,AACTAGGG,0.0253 E-score
9,CCCGTTCG,0.00966 E-score
10,CGACTTGC,-0.261 E-score
11,GGGTTCTA,0.0617 E-score
12,CGAGGACA,0.0373 E-score
13,CTGCGCCC,-0.105 E-score
14,GCGTTCAA,-0.186 E-score
15,CGCCTCAG,-0.0149 E-score
16,ACTCTTAG,0.132 E-score
17,AACTGATC,0.086 E-score
18,CCTTTGCA,-0.0239 E-score
19,CAGTGGGG,0.131 E-score
20,GGGAATCA,-0.0836 E-score
21,AACACATC,0.037 E-score
22,CCATACCA,0.0476 E-score
23,TAATCGTA,-0.0691 E-score
24,ATAGTGAC,0.0607 E-score
25,CATCCTAG,-0.0156 E-score

row,Sequence,binding signal
1,AAACGGGA,0.0725 E-score
2,CAGCGAAC,-0.0555 E-score
3,AAGGTGGT,0.151 E-score
4,CCTGGTGC,0.126 E-score
5,GTCGGAGA,-0.0854 E-score
6,CTAATTCC,-0.135 E-score
7,ACGCAAGA,-0.138 E-score
8,ACTATGAG,-0.0513 E-score
9,CCAAGCGA,0.06 E-score
10,CGGAGAAG,-0.0422 E-score
11,AGGCACCG,0.0283 E-score
12,AATTGGCT,-0.239 E-score
13,CACCGCCA,0.291 E-score
14,TAGTCACA,0.149 E-score
15,CTAGTCCA,-0.0936 E-score
16,TATTTCCA,-0.0671 E-score
17,AAAAAACT,-0.0851 E-score
18,CGCCGGCA,-0.087 E-score
19,AAATCTGA,0.0413 E-score
20,GGGCTAAA,0.013 E-score
21,GATACCTA,0.327 E-score
22,AACGCTGG,0.0674 E-score
23,TCGCTAGA,-0.188 E-score
24,GCTCATCA,-0.0259 E-score
25,GGTCTGGA,-0.115 E-score

row,Sequence,binding signal
1,AGAGGGCA,-0.133 E-score
2,AACGCCGA,0.0799 E-score
3,CGAGCTTC,0.0487 E-score
4,AGGGAGCA,-0.161 E-score
5,GAGCTAGC,-0.0695 E-score
6,CAAGTCGA,-0.252 E-score
7,AGTTGGCG,-0.0842 E-score
8,CTTCGTGC,0.00645 E-score
9,ATATCGAT,-0.0929 E-score
10,GAATTCTC,-0.25 E-score
11,GTGGGGTA,0.278 E-score
12,CTTGGCGC,-0.162 E-score
13,CTATTCAC,0.0248 E-score
14,CAGAATCG,-0.111 E-score
15,AGGCACTA,-0.108 E-score
16,CGGCGACA,0.064 E-score
17,AGCGGAGC,-0.19 E-score
18,CGTCGAAA,-0.282 E-score
19,AGCTTGAG,-0.0536 E-score
20,GTTTAGCA,-0.0902 E-score
21,ACAAGCAC,0.0981 E-score
22,GCGCCCGA,-0.0332 E-score
23,CTGGTGTA,0.484 E-score
24,CCAGATCG,0.126 E-score
25,AAGGCCAC,-0.0875 E-score

row,Sequence,binding signal
1,CCGTACGG,0.108 E-score
2,ATAGGTCC,-0.181 E-score
3,CAAAAAGC,-0.146 E-score
4,ACTAGTCG,0.0985 E-score
5,TACCGTGA,0.0532 E-score
6,CTCCCGAA,0.00455 E-score
7,CTGTGTTA,0.114 E-score
8,AGACTACT,-0.107 E-score
9,CCGTTCAC,-0.0936 E-score
10,TAAGTAAA,-0.288 E-score
11,CCTATTTA,-0.0674 E-score
12,GAGTAGTA,0.0475 E-score
13,CTGATACC,0.312 E-score
14,ACACAGCC,0.164 E-score
15,AATTAGTG,0.111 E-score
16,ATACGTTC,-0.147 E-score
17,AGGACGAC,-0.0215 E-score
18,ACTACCTC,0.045 E-score
19,GGAGCGCA,-0.154 E-score
20,AATAAAAC,-0.0472 E-score
21,TATAGTCA,-0.19 E-score
22,GAGCAATC,-0.144 E-score
23,CGACGACC,0.0183 E-score
24,GTCCTAAC,-0.0314 E-score
25,CACTCGCA,0.264 E-score

row,Sequence,binding signal
1,GACTATGA,-0.231 E-score
2,ATAACTCC,0.181 E-score
3,GCCGGTCC,-0.095 E-score
4,CCTGGTAG,-0.0392 E-score
5,ACCCCAGT,0.27 E-score
6,CTGGCAAA,-0.124 E-score
7,GACTCAAA,-0.0712 E-score
8,AGGAGGAA,-0.151 E-score
9,CGTTCCTA,-0.103 E-score
10,GTTCGAAC,0.284 E-score
11,AGACCACC,-0.135 E-score
12,GCTGTTAC,-0.225 E-score
13,CGCACTCA,-0.00377 E-score
14,AACCATCT,0.0146 E-score
15,ATAGCCGA,-0.112 E-score
16,GTAATAAA,0.0109 E-score
17,TACGTGAA,-0.0509 E-score
18,CTCTCGAA,-0.0527 E-score
19,AGCCTGGA,-0.142 E-score
20,AAGGGGCC,-0.0942 E-score
21,CATAGTCG,-0.213 E-score
22,TATTTAAA,-0.0888 E-score
23,CCGGAACA,-0.0551 E-score
24,TAGTCCGA,-0.245 E-score
25,CATCAACG,-0.0928 E-score

row,Sequence,binding signal
1,ACTTGTCA,0.0416 E-score
2,ACTTGAAG,0.0635 E-score
3,GATGTCAC,0.0447 E-score
4,GCAACGGA,-0.0926 E-score
5,GTCAACAA,0.111 E-score
6,AGGATTAT,-0.153 E-score
7,GGTTGAAA,-0.0735 E-score
8,CTGGCTGC,-0.0483 E-score
9,CAGTGTAC,0.404 E-score
10,AGGTGTTA,0.463 E-score
11,GAACAACC,-0.0972 E-score
12,GACCTTCA,-0.311 E-score
13,ATTGCTTA,-0.21 E-score
14,AGTTTGTA,-0.0869 E-score
15,AGGGACAT,-0.0868 E-score
16,AGGTCGCC,-0.213 E-score
17,AACCCCTC,0.27 E-score
18,ACATGCTC,-0.162 E-score
19,ATTTCTTA,-0.189 E-score
20,CGGGCATA,0.121 E-score
21,AGGCCATC,-0.232 E-score
22,CGGCACGA,0.0663 E-score
23,CACTTAGC,0.179 E-score
24,AACGACTG,-0.125 E-score
25,CCAGCCCC,-0.0112 E-score

row,Sequence,binding signal
1,TACCCAAA,0.067 E-score
2,GTGACCCA,0.0818 E-score
3,CCTCCTCA,0.0152 E-score
4,GACATGCA,-0.0151 E-score
5,AATGCGAA,-0.139 E-score
6,CTAGCATC,-0.264 E-score
7,CGCTTGCC,-0.128 E-score
8,CCTCGAAA,-0.0416 E-score
9,CGCACCTA,0.105 E-score
10,AGGACTAT,-0.0342 E-score
11,CGTGATGA,-0.0522 E-score
12,CGTCCGAA,-0.0907 E-score
13,CTTGGTTC,0.0163 E-score
14,CGAAGGAC,0.0191 E-score
15,CGGCACCC,-0.00027 E-score
16,TACTCCAA,0.198 E-score
17,AATCGATT,-0.103 E-score
18,CAACCGAA,-0.128 E-score
19,AAGTCACA,-0.0394 E-score
20,CATTTCAA,-0.287 E-score
21,CTAGAAGC,-0.121 E-score
22,AAATTCTT,-0.232 E-score
